PubChem BioAssay AID493208 (National Center for Advancing Translational Sciences (NCATS), 2011)
Out of some 44,000 compounds screened, about 340 (0.77%) were called active. Inconclusive results (about 5%) are left out. The call rests on the fitted dose curve; in most records, active means well fitted inhibition curve with a large enough effect; inconclusive means small, poorly fitted or top-dose-only effect; inactive means flat fitted curve, though single readings scatter. This is one part of the list.

Assay: Acumen qHTS Assay for Inhibitors of the mTORC1 Signaling Pathway in MEF (Tsc2-/-, p53-/-) Cells: Sytravon; further: nearly all actives have a fitted effect of over 50% in size;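 on activity change, negative = inhibition: plate controls were DMSO for no effect and rapamycin for full effect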
Conditions: phospho-rpS6 immunofluorescence/PI, 24 h; series mostly up to 38.3 µM; activity change, negative = inhibition: at the top concentration
Summary of the method: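 Readout is phospho-S6 Alexa 488 signal normalized to PI per well, reported as % active cells with thresholds set from rapamycin (7.5 nM) and DMSO controls. Cells: Tsc2-/-, p53-/- MEFs, 24 hrs compound at 37 C; PI cell number serves as viability.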
Potency means the concentration at half of the fitted maximal effect.

SMILES | activity change, negative = inhibition | Potency
COc1cc(OC)cc(C(=O)Nc2ccc3nc(N4CCCCC4)cc(C)c3c2)c1 | inactive: -25.4% | 
CC(C)Cn1c(=O)c2ccccc2n2c(CCC(=O)N3CCN(c4ccccc4F)CC3)nnc12 | inactive: -0.911% | 
CCCn1c(-c2ccc(S(=O)(=O)N3CCOCC3)cc2)csc1=Nc1ccc(OCC)cc1 | inactive: -18% | 
Cc1ccc2nc(-c3ccc(O)cc3)c(Nc3ccc4c(c3)OCCO4)n2c1 | inactive: 15.9% | 
CCCSCCCNC(=O)C1CCN(c2nn3cc(-c4ccc(F)cc4)nc3s2)CC1 | inactive: -7.11% | 
O=C(NCc1ccccc1Cl)C(=O)NCC(c1cccs1)S(=O)(=O)c1cccs1 (centres undefined) | inactive: -6.75% | 
Cc1ccc(C)n1-c1nnc(N2CCCC(C(=O)Nc3ccc(C(C)C)cc3)C2)s1 (centres undefined) | inactive: -0.0452% | 
COC(=O)c1ccccc1NC(=O)Cn1c(=O)n(Cc2ccc(C(=O)NCc3ccc4c(c3)OCO4)cc2)c(=O)c2ccccc21 | inactive: -7.2% | 
COc1cccc(C(=O)c2sc3nc(-c4ccccc4)cc(C(F)(F)F)c3c2N)c1 | inactive: -11.2% | 
CCOC(=O)c1c(C)oc2ncnc(Nc3ccc(OCC)cc3)c12 | inactive: -2.04% | 
Cc1ccc(C)c(N2C(=O)N(Cc3cc(=O)n4ccccc4n3)c3ccccc3S2(=O)=O)c1 | inactive: -1.13% | 
O=C(CN1C(=O)CCc2cc(S(=O)(=O)N3CCOCC3)ccc21)NCc1ccc(F)cc1 | inactive: 0% | 
CCc1cccc(NC(=O)Nc2csc3c2CCCC3)c1 | inactive: -3.78% | 
Cc1ccc(CNC(=O)c2ccc3c(c2)nc(C)n3-c2cc(C)cc(C)c2)cc1 | inactive: 6.92% | 
O=C(COc1ccccc1F)Nc1ccc(-c2nc3ccccc3s2)cc1 | inactive: 1.73% | 
COc1cccc(NC(=O)CNC(=O)Cn2c(C)cc3ccccc3c2=O)c1 | inactive: -17.5% | 
Cc1ccc(N(CC(=O)NCCc2ccccc2)S(=O)(=O)N(C)C)cc1 | inactive: -0.21% | 
COc1cc(C)ccc1OCCSc1nc2ccc(NC(=O)c3ccc(F)cc3)cc2s1 | inactive: 1.6% | 
Cn1ccc2cc(S(=O)(=O)N3CCC(C(=O)NCCc4ccccc4)CC3)ccc21 | inactive: 9.12% | 
CCCCOc1ccc(C(=O)Nc2ccc(-c3nc4ccccc4s3)cc2C)cc1 | inactive: -9.38% | 
N#Cc1ccccc1NC(=O)Cn1cnc2onc(-c3cccc(F)c3)c2c1=O | inactive: 0% | 
Nc1ncc(S(=O)(=O)NCc2ccc(Cl)cc2)cn1 | inactive: 1.81% | 
COc1ccc(Cl)cc1NC(=O)Cn1cc(C(=O)c2ccncc2)c(=O)c2cc(C)ccc21 | inactive: -1.63% | 
CCC(Sc1nc2cc(OC)c(OC)cc2c(=O)n1CCc1ccc(Cl)cc1)C(=O)NCCOC (centres undefined) | inactive: -7.13% | 

SMILES | activity change, negative = inhibition | Potency
CCOc1ccc(-c2cc(OC(=O)c3ccccc3)c3c(C)oc(C)c3c(=O)c2)cc1 | inactive: -8.34% | 
Cn1nnc2c(N3CCN(c4ccccc4F)CC3)ncnc21 | inactive: 0.286% | 
Cc1cc(C)cc(OCC(=O)Nc2ccc(-c3nc4ccccc4s3)cc2)c1 | inactive: -2.82% | 
O=C(CSc1nc2ccccc2n1Cc1ccccc1F)NCc1ccccc1 | inactive: 0% | 
Cc1ccccc1C(=O)Nc1cccc(C(=O)OCc2cc(=O)n3c4c(sc3n2)CCCC4)c1 | inactive: 0% | 
Cc1ccc(-n2c(SCC(=O)NCc3ccc(F)cc3)nc3c([nH]c4ccccc43)c2=O)cc1 | inactive: -13.6% | 
CCCCNC(=O)CSc1nc2cc3c(cc2c(=O)n1CCCCCC(=O)NCc1ccc2c(c1)OCO2)OCO3 | inactive: 0.194% | 
COc1ccc(N(CC(=O)NCCc2ccccc2)S(=O)(=O)c2ccccc2)c(OC)c1 | inactive: 2.29% | 
Cc1ccc2oc3c(c(=O)c2c1)C(c1ccccc1F)N(CCCN1CCOCC1)C3=O (centres undefined) | inactive: 8.03% | 
COc1cc2c(cc1OC)C(COc1ccc(F)cc1)N(C(=O)Cc1ccc(F)cc1)CC2 (centres undefined) | inactive: 3.29% | 
Cc1cc(C)cc(NC(=O)CCc2c(C)nn(-c3ccc(N4CCCC4)nn3)c2C)c1 | inactive: -4.83% | 
Cc1ccc(Nc2c(-c3ccncc3)nc3ccc(C)cn23)cc1 | inactive: -14.3% | 
CCOc1ccc(OCC)c(S(=O)(=O)N2CCN(c3cccc(C)c3C)CC2)c1 | inactive: -4.05% | 
CCOC(=O)C1CCN(c2ncnc3c2nnn3C)CC1 | inactive: -2.3% | 
Cc1ccc(CN(C(=O)COc2cccc([N+](=O)[O-])c2)c2ccccn2)cc1 | inactive: -13.9% | 
CC(C)c1ccc(CNc2nc(-c3ccco3)nn2S(=O)(=O)c2ccc3ccccc3c2)cc1 | inactive: -3.74% | 
Cc1cc(C)cc(N2CCn3c2nc2c3c(=O)n(Cc3ccc(Cl)cc3)c(=O)n2C)c1 | inactive: 5.24% | 
O=S(=O)(c1ccccc1)c1nc(-c2ccc(Cl)cc2Cl)oc1N1CCCCCC1 | inactive: -0.031% | 
COc1ccc(CNC(=O)Cn2nnc(-c3ccc(S(C)(=O)=O)cc3)n2)cc1 | inactive: -18.4% | 
COc1cccc(-c2cc(C(=O)Nc3cc(OC)c(OC)c(OC)c3)on2)c1 | inactive: -1.08% | 
COc1cccc2c1cc1c(=O)n(CC(=O)N3CCN(c4cc(Cl)ccc4C)CC3)nc(C)n12 | inactive: 6.96% | 
O=C(CCCn1c(=O)c2cccn2c2cccnc21)NCc1ccc(F)cc1 | inactive: -8.25% | 
CCC1CCCCN1CC(=O)N1CCCc2c1c(=O)oc1ccc(OCc3ccccc3)cc21 (centres undefined) | inactive: -29.3% | 
CCN1CCN(c2ccc(NS(=O)(=O)c3c(C)nc4sccn4c3=O)cc2Cl)CC1 | inactive: -17.2% | 

SMILES | activity change, negative = inhibition | Potency
COc1ccc(CNC(=O)CCC(=O)N2CCSc3ccccc32)cc1 | inactive: -8.94% | 
CCOc1ccc(-n2c(C)nc3cc(C(=O)NCCC4=CCCCC4)ccc32)cc1 | inactive: 1.1% | 
CCOC(=O)c1ccc(NC(=O)C2=C(C)Nc3nc(SCc4ccc(Cl)cc4)nn3C2c2ccc(OC)cc2)cc1 (centres undefined) | inactive: -2.56% | 
COc1ccc(-c2nnc(SCC(=O)Nc3ccc(Cl)cc3)s2)cc1 | inactive: 5.73% | 
Cc1ccccc1NS(=O)(=O)c1ccc(Br)s1 | inactive: -6.74% | 
COc1ccc(-c2nc3sc(CCNC(=O)c4cc(Cl)ccc4OC)c(C)n3n2)cc1 | inactive: -9.24% | 
CN(Cc1ccccc1)S(=O)(=O)c1ccc(F)c(C(=O)Nc2cccc(Cl)c2Cl)c1 | inactive: -11.8% | 
Cc1ccc(C(C)(C)C)c(OCC(=O)NCCc2nc3ccccc3[nH]2)c1 | inactive: -1.22% | 
CCN(CC)c1cc2c(cc1F)c(=O)c(S(=O)(=O)c1cc(C)ccc1C)cn2Cc1ccccc1 | inactive: -1.59% | 
Cc1cccc(CC2C(=O)Nc3ccccc32)c1 (centres undefined) | inactive: -13.2% | 
CCOc1ccccc1-n1nnc(-c2nc(-c3ccccc3)no2)c1N | inactive: 1.75% | 
CCOc1ccc(C2=NC(c3cccs3)=Nc3ccc(C(C)C)cc3N2)cc1 | inactive: -4.87% | 
Cc1c(/C=C(\C#N)C(=O)Nc2cccc(Cl)c2)c2ccccc2n1Cc1ccccc1Cl | inactive: 22.4% | 
CCOC(=O)c1c(NC(=O)c2ccc(S(=O)(=O)N(CCOC)CCOC)cc2)sc2c1CC(C)(C)NC2(C)C |  | active: 11.7 µM
CCOC(=O)c1cccc(NC(=O)C2CCN(S(=O)(=O)c3ccc4c(c3)oc(=O)n4C)CC2)c1 | inactive: -29.5% | 
COc1ccc(S(=O)(=O)N(CCc2ccccc2)CC(=O)Nc2cccc(OC)c2)cc1 | inactive: 19.3% | 
CCc1ccc(C(=O)COC(=O)C(Cc2c[nH]c3ccccc23)NC(=O)c2ccc(Br)cc2)cc1 (centres undefined) | inactive: 10.9% | 
CCOc1ccc(C2c3cc(OCC)c(OCC)cc3CC(=O)N2c2ccc(C(=O)O)cc2)cc1OCC (centres undefined) | inactive: 3.67% | 
COc1ccccc1N1CCN(c2ncnc3c2cnn3C)CC1 | inactive: 10.1% | 
COc1ccc(CCN2C(=O)c3oc4ccc(F)cc4c(=O)c3C2c2ccc(C(C)(C)C)cc2)cc1 (centres undefined) | inactive: -1.26% | 
CCc1cccc(C)c1NC(=O)Cn1ccn(-c2ccc(F)cc2)c(=O)c1=O | inactive: 3.01% | 
Cc1nc2ccc(S(=O)(=O)N(C)CC(=O)Nc3ccc(Br)c(C)c3)cc2s1 | inactive: 8.1% | 
Cc1ccccc1-c1nn2c(=O)cc(CN3CCN(C(=O)c4ccc(C(C)(C)C)cc4)CC3)nc2s1 | inactive: 1.53% | 
CCOC(=O)N1CCc2c(sc3c2c(=O)n(CCc2ccccc2)c(=O)n3Cc2ccc(F)cc2)C1 | inactive: -16.5% | 

SMILES | activity change, negative = inhibition | Potency
O=C(CSc1nc(-c2ccccc2)no1)N1CCCCC1 | inactive: -19.2% | 
COc1ccc(C(=O)CN2C(=O)N(c3ccc(C(C)=O)cc3)S(=O)(=O)c3ccccc32)cc1 | inactive: 0.265% | 
Cc1ccc(Cn2nnc(C(=O)Nc3ccc(F)c(F)c3)c2N)cc1 | inactive: -0.809% | 
COc1ccc(S(=O)(=O)N2CCC(n3c(C(F)(F)F)nc4cccnc43)CC2)cc1OC | inactive: 2.11% | 
CCOc1ccccc1-n1cc2c(c1-c1ccc(OC)cc1)c(=O)n(C)c(=O)n2C | inactive: 1.89% | 
Cc1ccc(N(C)C(=O)C2CCN(S(=O)(=O)c3ccc4c(c3)CCCN4C(=O)C3CCC3)CC2)cc1 | inactive: 6.63% | 
COc1ccc(NC(=O)c2cn(-c3ccccc3)nc2-c2ccc(C)cc2)cc1 | inactive: 10.9% | 
COC(=O)c1ccc(NC(=O)CN2CCN(c3ccc(Cl)cc3)CC2)cc1 | inactive: 0% | 
O=C1CC(c2ccccc2)Cc2[nH]c(=O)c(C(=O)Nc3cccc(Cl)c3)cc21 (centres undefined) | inactive: 4.74% | 
Cc1c(Cl)cccc1NC(=O)CN1C(=O)COc2ccc(S(=O)(=O)Nc3ccccc3)cc21 | inactive: -18.7% | 
CCCOC(=O)CSc1nnc2ccc3ccccc3n12 | inactive: 0.126% | 
O=C(CSc1nc2ccccc2nc1Cc1ccccc1)Nc1ccc2c(c1)OCO2 | inactive: 6.1% | 
CCOC(=O)c1cccc(NC(=O)C(C)n2c(C)c3cnn(-c4ccccc4)c(=O)c3c2C)c1 (centres undefined) | inactive: -6.22% | 
COc1ccc(NC(=O)c2ccc3c(c2)CCN3S(=O)(=O)c2ccc(C)cc2)cc1Cl | inactive: 0.404% | 
Cc1ccc(NC(=O)CN(C)S(=O)(=O)c2ccc3nc(C)sc3c2)c(C)c1 | inactive: -0.0438% | 
CC(C)NS(=O)(=O)c1ccc2nc(NC(=O)c3cncc(Br)c3)sc2c1 | inactive: 2.78% | 
COc1cc(NC(=O)CSc2nc3nc(C)c(Cc4ccc(C)cc4)c(C)n3n2)cc(OC)c1 | inactive: -11.3% | 
COc1ccc(Cl)cc1NC(=O)CCc1c(C)nc2c(c1C)c(=O)n(C)c(=O)n2C | inactive: -0.351% | 
CCCSCCCNC(=O)c1ccc(Cn2c(=O)c3cccn3c3cccnc32)cc1 | inactive: -2.18% | 
Cc1nc(-c2ccccc2)sc1CCNC(=O)c1ccco1 | inactive: -11% | 
CCN(C(=O)Cn1ncc2c1-c1cc(C)ccc1OC2)c1cc(Cl)ccc1OC | inactive: -4.34% | 
CCc1ccccc1NC(=O)CSc1ncc2c(n1)-c1ccccc1N(Cc1ccc(C)cc1)S2(=O)=O | inactive: -15.5% | 
